The text below walks through data of ChEMBL document CHEMBL4888484, “Replenishing the malaria drug discovery pipeline: Screening and hit evaluation of the MMV Hit Generation Library 1 (HGL1) against asexual blood stage Plasmodium falciparum ,using a nano luciferase reporter read-out” (2022).

Hit rate of the full screen: of about 150,000 compounds, about 540 (0.36%) showed an effect of 50% or more. Some of the results follow.

This assay has as its system Plasmodium falciparum. The experiment in a line: Primary screen in NF54 nanoGlo assay, in single point, at 2uM, 72h; a lower Z score goes with more inhibition. In kind it is functional, Erythrocyte. The following applies: timepoint 72 hour.
What is called % Inhibition is the change of the read-out against control, counted positive when it falls. With `CN(C)S(=O)(=O)N1CC[C@]23C(=O)N(CC(=O)NCCCOc4cccc(c4)[C@H]12)c1ccccc13`, the “% Inhibition” value is recorded as -11% and the Z score came to 2.02.

Turning to `CN1CCC(N2C[C@@H]3C[C@H]2C(=O)NC[C@H]2O[C@H](CCOc4cc(-c5ccccc5)ccc4C(=O)N3)CC[C@@H]2O)CC1`, the “% Inhibition” value is listed as 9% and the Z score was -1.04.

Regarding `CCc1nc(C)sc1CNC(=O)C(=O)c1ccco1`, the “% Inhibition” value is reported as -17% and the Z score is listed as 1.74.

As to `Cc1cccc(OC[C@H]2CN(C(=O)Nc3ccccc3)CCO2)c1`, the “% Inhibition” value is given as -6% and the Z score is 0.62.

In the case of `COCCN(C)C[C@@H]1C[C@H](CO)CN(C(=O)c2ccc(C)c(Cl)c2)C1`, the “% Inhibition” value is given as -9% and the Z score was found to be 1.71.

For `CN(CCc1ccccn1)c1nncc(-c2ccccc2F)n1`, the “% Inhibition” value was determined as 3% and the Z score is listed as -0.33.

For the compound `Cc1ccc(O[C@H]2CCOC[C@H]2NC(=O)CCc2scnc2C)cn1`, the “% Inhibition” value was -10% and the Z score was determined as 1.12.

Take `CS(=O)(=O)NCCn1nc(C2CC2)cc1C1CC1`: the “% Inhibition” value is listed as -23% and the Z score is recorded as 2.96.

Consider `CN(CCc1ccccn1)c1ccc2c(c1)CNCC(=O)N1CC[C@@H](CC(=O)NCC3CC3)[C@@H](/C=C/CO2)C1`, for which the “% Inhibition” value is listed as -10% and the Z score was found to be 1.25.

With `OC[C@H]1CCCN(Cc2c(Cl)cccc2N2CCCC2)C1`, the “% Inhibition” value is given as -14% and the Z score came to 1.38.

As for `CC(=O)N1CCc2[nH]c3ccc(C(=O)N4CCN(C(C)C)CC4)cc3c2C1`, the “% Inhibition” value turned out to be 4% and the Z score is on record as -0.62.

On to `COc1cc(NS(=O)(=O)c2cc(CN3C(=O)C4CCCCC4C3=O)ccc2C)cc(OC)c1` (centres undefined), for which the “% Inhibition” value is 1% and the Z score was -0.18.

Consider `COc1ccc2c(c1)[C@H](c1nc(-c3ccncc3)no1)CC(=O)N2`, for which the “% Inhibition” value was -14% and the Z score was found to be 1.58.

With `CN(Cc1ccoc1)C(=O)c1ccncc1`, the “% Inhibition” value was -6% and the Z score turned out to be 1.05.

As for `c1ncc(CNc2ccc(Cc3nnc4n3CCC4)cc2)s1`, the “% Inhibition” value is recorded as -2% and the Z score is reported as 0.32.

In the case of `O=C1[C@@H](Oc2nnc(-c3ccccc3)o2)CCN1CC(F)(F)F`, the “% Inhibition” value was -24% and the Z score is 3.23.

Turning to `COc1ccccc1C(=O)N1CCN(c2nc3c(s2)c(C)nn3C)CC1`, the “% Inhibition” value is reported as -1% and the Z score stood at 0.12.

`COC(=O)c1ccc(NC(=O)NCC2(C)OCCCO2)cc1Cl`: the “% Inhibition” value is recorded as -5% and the Z score came to 0.55.

Turning to `Cc1cccnc1NCCn1ccnc1-c1ccsc1`, the “% Inhibition” value is -9% and the Z score worked out at 1.71.

Consider `C[C@H](O)CCNC(=O)Nc1nc(-c2cccs2)ns1`, for which the “% Inhibition” value was -5% and the Z score is 0.62.

Consider `CCC(C(=O)NC1CCN(C2CCOC2)CC1)c1ccccc1` (centres undefined), for which the “% Inhibition” value is -21% and the Z score is given as 2.3.

For the compound `O=C(N[C@H]1CS(=O)(=O)C[C@@H]1O)c1ccc2nc(-c3ccccc3)cn2c1`, the “% Inhibition” value amounted to 0% and the Z score stood at 0.03.

Turning to `CCc1nc(NCCc2cn3cccnc3n2)c2ccsc2n1`, the “% Inhibition” value is given as -2% and the Z score worked out at 0.3.

Take `Cc1cc([C@H](C)NCCc2ccccn2)oc1C`: the “% Inhibition” value was found to be 9% and the Z score was -1.67.

Consider `FC(F)(F)Cn1cc2c(n1)[C@@H](Nc1ccc(C(F)(F)F)nn1)CCC2`, for which the “% Inhibition” value is reported as -7% and the Z score turned out to be 0.62.

`Cc1cc(C)n(CC(=O)Nc2ccc(F)cc2F)c(=O)c1-c1nc(-c2ccc3c(c2)OCO3)no1`: the “% Inhibition” value is on record as -1% and the Z score stood at 0.08.

Take `CCC[C@@](C)(CNC(=O)C1=CCCC1)NC(=O)C1=CCCC1`: the “% Inhibition” value is -4% and the Z score is given as 0.56.

Turning to `CCC1CN2CCCC2CN1C(=O)Nc1cccc2[nH]ccc12` (centres undefined), the “% Inhibition” value stood at 0% and the Z score is given as 0.06.

For the compound `Cn1ccnc1-c1ccc(C(=O)NCCc2ncnn2C)cc1`, the “% Inhibition” value is -8% and the Z score is listed as 1.5.

In the case of `O=S(=O)(C1COC1)N1CCCCC[C@H]1c1noc(-c2ccccc2)n1`, the “% Inhibition” value was -8% and the Z score is given as 1.19.

As for `CCC(=O)N(Cc1c(-c2ccccc2)noc1N1CCOCC1)C1CC1`, the “% Inhibition” value is 1% and the Z score is given as -0.12.

On to `COC1CCN(C(=O)C[C@]2(c3ccccc3)CC(=O)N(CCCOc3cccnc3)C2=O)CC1`, for which the “% Inhibition” value turned out to be 14% and the Z score is listed as -1.96.

Turning to `COc1ccc(CNC(=O)[C@H]2CCCN(c3nccn4nc(-c5ccc(F)cc5)cc34)C2)cc1OC`, the “% Inhibition” value was determined as 0% and the Z score turned out to be 0.04.

As to `CC(=O)N1CCN([C@@H](C)C(=O)N2CCN(c3ccccc3)CC2)CC1`, the “% Inhibition” value came out at 3% and the Z score is -0.37.

In the case of `CC1CCN(C(=O)NCCN2C(=O)CCC2=O)CC1`, the “% Inhibition” value is -9% and the Z score is 1.36.

On to `O=S(=O)(Nc1nc2ncccn2n1)c1c(Cl)cccc1C(F)(F)F`, for which the “% Inhibition” value was 5% and the Z score was -0.66.

Take `CCOC(=O)c1cc(NC(=O)Nc2c(C)n(C)n(-c3ccccc3)c2=O)cn1C`: the “% Inhibition” value was found to be 12% and the Z score is -1.46.

In the case of `CCOc1cc(CNC(=O)C(C)(C)C)ccc1OC`, the “% Inhibition” value was -9% and the Z score is reported as 1.54.

Consider `Cc1nc(C)c(S(=O)(=O)Nc2n[nH]c3cc(F)ccc23)s1`, for which the “% Inhibition” value is given as -8% and the Z score is 0.83.

As to `CN(Cc1ccncc1)Cc1c[nH]nc1-c1cccnc1`, the “% Inhibition” value was -10% and the Z score is recorded as 2.03.

Consider `Cc1n[nH]c(C)c1[C@@H](C)C(=O)N1CCN(CCC(C)C)CC1`, for which the “% Inhibition” value is -10% and the Z score amounted to 1.6.

As for `CC[C@H](C)N(Cc1c(C)nn(-c2cccc(F)c2)c1N1CCN(CC)CC1)C(=O)NC(C)(C)C`, the “% Inhibition” value worked out at 8% and the Z score is given as -0.96.
